Assay results published in paper PMC4336329 (PLoS ONE, 2015).
Screen size: about 310,000 compounds; about 14,000 (4.5%) showed an effect of 50% or more. The effect is printed as a negative number. The list shows a part of the results. Where a SMILES comes first, the peptide text is derived from it. The star is where a group is joined. Boc = CC(C)(C)OC(=O)*

These molecules were tested against human ether-à-go-go-related gene (hERG) potassium channel (human, UniProt Q12809) (assay: primary screen, population patch clamp on CHO cells stably expressing hERG).
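Note: peak tail current of the secondary pulse compared with the same well before compound.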

human ether-à-go-go-related gene (hERG) potassium channel, sequence (Q12809 whole entry, looked up): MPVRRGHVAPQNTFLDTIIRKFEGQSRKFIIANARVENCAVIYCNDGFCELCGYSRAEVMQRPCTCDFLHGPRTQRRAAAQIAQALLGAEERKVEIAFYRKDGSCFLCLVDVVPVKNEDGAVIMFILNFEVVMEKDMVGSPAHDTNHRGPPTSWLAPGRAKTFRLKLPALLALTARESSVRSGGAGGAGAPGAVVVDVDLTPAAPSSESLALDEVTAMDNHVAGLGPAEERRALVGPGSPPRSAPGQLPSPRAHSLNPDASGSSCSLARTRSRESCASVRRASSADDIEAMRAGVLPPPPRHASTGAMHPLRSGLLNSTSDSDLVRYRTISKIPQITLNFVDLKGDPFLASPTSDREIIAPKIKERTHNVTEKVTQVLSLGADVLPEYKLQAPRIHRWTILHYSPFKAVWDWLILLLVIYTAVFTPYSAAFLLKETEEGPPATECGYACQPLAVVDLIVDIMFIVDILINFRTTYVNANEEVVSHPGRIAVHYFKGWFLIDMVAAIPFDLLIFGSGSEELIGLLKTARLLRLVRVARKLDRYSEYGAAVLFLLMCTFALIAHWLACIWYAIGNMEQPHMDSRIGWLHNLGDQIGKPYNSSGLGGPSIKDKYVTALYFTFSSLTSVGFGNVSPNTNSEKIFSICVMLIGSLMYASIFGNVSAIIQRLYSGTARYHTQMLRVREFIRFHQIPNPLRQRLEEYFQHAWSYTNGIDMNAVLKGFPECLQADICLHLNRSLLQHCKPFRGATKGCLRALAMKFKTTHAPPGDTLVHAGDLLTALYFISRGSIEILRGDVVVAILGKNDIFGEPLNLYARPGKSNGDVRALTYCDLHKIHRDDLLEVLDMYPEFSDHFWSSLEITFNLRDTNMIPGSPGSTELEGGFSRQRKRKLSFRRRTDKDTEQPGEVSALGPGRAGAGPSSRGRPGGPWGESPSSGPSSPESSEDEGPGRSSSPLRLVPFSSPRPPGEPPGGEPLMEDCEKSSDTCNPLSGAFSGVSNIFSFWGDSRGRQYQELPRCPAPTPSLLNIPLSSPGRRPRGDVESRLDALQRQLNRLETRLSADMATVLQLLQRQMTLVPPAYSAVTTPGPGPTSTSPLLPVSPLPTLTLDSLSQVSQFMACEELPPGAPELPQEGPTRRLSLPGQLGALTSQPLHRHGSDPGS

| SMILES | hERG current change (%, negative = inhibition) at 10uM [%] |
| --- | --- |
| COc1ccc(C(=O)OCC(=O)NCC2CCCO2)cc1[N+](=O)[O-] (centres unmarked) | 2.12 |
| Cc1ccccc1-c1nnc(SCc2ccc(F)cc2)o1 | 6.05 |
| Cc1cccc(OCC(=O)Nc2cc(C)on2)c1 | -8.07 |
| O=C(c1ccccc1)c1ccc(NCCCn2ccnc2)c([N+](=O)[O-])c1 | -81.3 |
| CCOC(=O)[C@H]1[C@H]2COc3ccc(C)cc3[C@@H]2N2C(=O)[C@@H](CO)NC(=O)[C@@]12C | 11.6 |
| c1ccc(CN2CCN(c3ncccn3)CC2)cc1 | 11.6 |
| CC(NC(=O)C(NC(=O)C(Cc1c[nH]c2ccccc12)NC(=O)OC(C)(C)C)C(C)C)C(N)=O (stereo not drawn) (Boc-Trp-Val-Ala-NH2; configuration not given here) | 20.7 |
| CC(=O)c1cccc(NS(=O)(=O)c2ccc(-c3cc(C)no3)s2)c1 | 5.05 |
| COc1cc(SC)ccc1C(=O)NCc1ccc(C)cc1 | -25.8 |
| C=CCNC(=S)N/N=C/c1ccc(C)cc1C | 17.3 |
| O=C(CSc1nc(O)cc(=O)n1-c1ccccc1)Nc1ccc2c3c(cccc13)CC2 | 7.26 |
| Cc1[nH]nc(SCC(=O)N(C)c2ccccc2)c1[N+](=O)[O-] | 15.5 |
| COc1cc(/C=N\NC(=O)C2C(=O)NCC2c2ccccc2)cc(OC)c1O (centres unmarked) | 7.57 |
| O=C1C(=O)N(CCN2CCOCC2)C(c2cccnc2)/C1=C(/O)c1ccccc1 (centres unmarked) | 13.5 |
| COc1cc2ccccc2cc1C(=O)Nc1nnc(-c2ccncc2)o1 | -52.3 |
| CN(C)C(=O)Oc1ccc2oc(=O)cc(-c3cc4ccccc4o3)c2c1 | 10.7 |
| C/C(=N\NC(=O)c1nnn(-c2nonc2N)c1CSc1ccccc1)c1cccnc1 | 13.2 |
| O=C(COC(=O)CCCOc1ccccc1)NNC(=O)c1ccc([N+](=O)[O-])cc1 | -16.6 |
| COc1cc(/C=N/N2CCOCC2)ccc1OCc1ccc(Cl)cc1 | -2.41 |
| Cc1cc(NS(=O)(=O)c2ccc(NC(=S)Nc3ccc(Cl)cc3C)cc2)no1 | 12.8 |
| CC(=O)Nc1cccc(C(=O)OCc2ccccc2)c1 | -0.288 |
| O=C(Nc1ccc(F)cc1)c1cnc(-c2ccccc2)nc1-c1ccccc1 | -0.312 |

| SMILES | hERG current change (%, negative = inhibition) at 10uM [%] |
| --- | --- |
| Cn1ncc2c(NNC(=O)c3ccccc3Cl)ncnc21 | 10.1 |
| C/C(CC(=O)Nc1c(Cl)cccc1C(F)(F)F)=N\NC(=O)c1cnccn1 | 7.36 |
| CN1CCN(C(=S)c2ccc(-c3cc(Cl)ccc3Cl)o2)CC1 | -20.7 |
| O=[N+]([O-])c1ncc(Br)cc1Nc1ccccc1 | 6.44 |
| COc1ccc(Cn2nnnc2C(CC(C)C)N2CCC(C(N)=O)CC2)cc1 (centres unmarked) | -4.8 |
| COc1ccc(NC(=O)c2nnn(CC(=O)Nc3ccc4c(c3)OCO4)c2N)cc1OC | 13.9 |
| O=C(NNC(=O)c1ccccc1F)C1=NN(c2ccccc2)C(=O)CC1 | 6.13 |
| Cc1ccc(N(C(=O)c2csnn2)C(C(=O)NC(C)(C)C)c2ccncc2)cc1 (centres unmarked) | -3.09 |
| CCCn1cnnc1CNC(=O)C1CCC(=O)N(CCc2ccc(OC)cc2)C1 (centres unmarked) | 22.5 |
| CCOC(=O)c1cc(-c2ccccc2)sc1NC(=O)COC | -13.6 |
| COCCNC(=O)NC12CC3CC(CC(C3)C1)C2 | 22.2 |
| Cc1cccc2sc(N(CCN(C)C)C(=O)/C=C/c3cccs3)nc12.Cl | -20.4 |
| CCc1cc2cc(C)ccc2nc1SCC(=O)N1CC(=O)Nc2ccccc21 | -7.37 |
| O=C1[C@H]2[C@@H](/C=C/c3ccccc3)N3C(=O)CN(Cc4ccccn4)C(=O)[C@@]3(Cc3ccccc3)[C@H]2C(=O)N1c1ccccc1 | -26.9 |
| Cc1ccc([N+](=O)[O-])cc1S(=O)(=O)Nc1ccc(N2CCOCC2)cc1 | 25.8 |
| CC(=O)NC(=S)Nc1ccc(NC(=O)COc2ccc(C(C)C)cc2)cc1 | 13.3 |
| CCOc1ccc(C2CC(c3cccc(C)c3)n3nc(N)nc3N2)cc1 (centres unmarked) | -33.9 |
| CN(C)CCCN1c2ccc([N+](=O)[O-])cc2CCc2cc([N+](=O)[O-])ccc21 | -50.3 |
| Cc1cc(NC(=O)CSc2n[nH]c(-c3cccs3)n2)no1 | 6.89 |
| Cc1cccc(/C=N/NC(=O)CN2CCCCCCC2)c1 | -45.9 |
| CN(C)S(=O)(=O)n1cnc(C(CCO)c2ncn(S(=O)(=O)N(C)C)c2CCCO)c1 (centres unmarked) | 8.87 |
| COc1cc(Cl)cc(/C=C/c2ccc3cccc(O)c3n2)c1OC | 13.7 |

| SMILES | hERG current change (%, negative = inhibition) at 10uM [%] |
| --- | --- |
| Cc1c(C(=O)N2CCN(C/C=C/c3ccccc3)CC2)oc2c(F)cccc12 | -35.7 |
| CC(C)n1c(O)c(N=NC(=O)CNC(=O)Cc2ccc(Cl)cc2)c2ccccc21 | -39.1 |
| CCN(Cc1ccncc1)C(=O)c1cc(COc2ccc(OC)cc2Cl)on1 | -22.6 |
| CCCc1cc(C(=O)NNC(=S)Nc2cccc(C)c2)cs1 | 8.4 |
| CCOc1ccc(-c2n[nH]c(C)c2-c2ccccn2)c(O)c1 | 13.6 |
| CCn1c(=O)c(C(=O)NNC(=O)c2cccc(Cl)c2)c(O)c2ccccc21 | 32.4 |
| CC(C)(C)NC(=O)C(c1ccncc1)N(C(=O)C1CSC(=O)C1)c1ccccc1 (centres unmarked) | 12.3 |
| COc1ccc(NC(=S)N(CCC(C)C)C(C)c2ccncc2)cc1 (centres unmarked) | -42.2 |
| c1ccc2c(Nc3ccc(N4CCOCC4)cc3)nc(N3CCOCC3)nc2c1 | -48.5 |
| COc1ccccc1NC(=S)NCCc1c[nH]c2ccccc12 | -1.56 |
| CCNS(=O)(=O)c1ccc(CCC(=O)Nc2ccc3c(c2)OCO3)cc1 | 14.4 |
| COc1ccc(-c2cc(C(F)(F)F)nc(-n3cc(Br)cn3)n2)cc1 | -0.892 |
| O=C(O)c1ccc(N/N=C/c2cc3cc4c(cc3nc2Cl)OCCO4)cc1 | -4.78 |
| Nc1nnc(SCCCC(=O)c2ccc(F)cc2)s1 | -7.48 |
| Cc1ccc2cc(C)c3nnc(SCc4ccc(C(=O)O)cc4)n3c2c1C | 19.7 |
| COc1ccc(/C=C/C(=O)OCc2cccc([N+](=O)[O-])c2)cc1 | -9.66 |
| Cc1cc(SCc2ccc(C(F)(F)F)cc2)nc(=O)[nH]1 | 15 |
| CCCCOc1ccc(C(=O)NCCCC(=O)N2CCCCC2)cc1 | -11.4 |
| C=CCSC1=C(C#N)C(c2ccccc2OCC)C(C#N)C(=O)N1 (centres unmarked) | -0.452 |
| Cc1ccc(-n2c(SCC(=O)NC3CCCCC3)nc3c(c2=O)SCC3)cc1 | 5.27 |
| COC(=O)C1=C(C)N(CC2CC2)C(=NCc2cccc(Cl)c2)N[C@H]1c1ccccc1 | -72.3 |
| Cc1ccc(S(=O)(=O)Nc2ccccc2F)cc1C(=O)NCCCN1CCCC1=O | -9.23 |

| SMILES | hERG current change (%, negative = inhibition) at 10uM [%] |
| --- | --- |
| O=[N+]([O-])c1ccc(CNCc2cc(Cl)ccc2O)cc1 | -25.9 |
| COc1ccc(C(C(=O)NCc2ccc(F)cc2)N(C(=O)c2csnn2)C2CC2)cc1 (centres unmarked) | -23.7 |
| COc1ccc(C(=O)c2ccc(Cl)cc2Cl)cc1 | 9.42 |
| Cn1c(=O)n(CC(=O)Nc2ccccc2)c2ccccc21 | 3.1 |
| CCNC(=O)C(=O)Nc1ccc([N+](=O)[O-])cc1 | 2.37 |
| C=CCn1c(SCC(=O)NC2CC2)nc2sc(CC)cc2c1=O | -54.6 |
| Cc1cc(NCC2CCCO2)n2c(nc3ccccc32)c1C#N (centres unmarked) | -21.2 |
| NC(=O)c1sc(=S)n2c1[nH]c(=O)c1sccc12 | 12.9 |
| Cc1cc2n(n1)C(c1cccs1)Nc1ccccc1-2 (centres unmarked) | -44.4 |
| Cc1onc(-c2c(F)cccc2Cl)c1C(=O)OCc1cnc(Cl)s1 | -3.61 |
| CN(C)C1(CN=Cc2cc(Cl)cc([N+](=O)[O-])c2O)CCCCC1 | 11.4 |
| O=C(NCc1cccs1)C1CCC(=O)N1C1CCCCC1 (centres unmarked) | -5.61 |
| CCOc1ccccc1N1CCN(C(=O)c2cccs2)CC1 | 9.36 |
| CCOc1ccc(CCNC(=O)CSCC(=O)Nc2cccc(C)c2)cc1OCC | -8.35 |
| Cc1cccc(N2CCN(C(=O)C3CCN(S(=O)(=O)c4cccc5cccnc45)CC3)CC2C)c1 (centres unmarked) | -8 |
| COc1ccc(C2=C(C[NH+](C)C)C(c3ccccc3)c3ccccc3O2)cc1.[Cl-] (centres unmarked) | -7.29 |
| CCc1ccccc1NC(=O)CSc1nnc([C@@H](N)Cc2c[nH]c3ccccc23)o1.Cl | -13.9 |
| Cc1cc(C)cc(NC(=O)CCN2CC(C)OC(C)C2)c1 (centres unmarked) | -1.23 |
| CC(=O)N1CCc2c(sc(NC(=O)C3CCN(S(=O)(=O)c4cccs4)CC3)c2C(N)=O)C1 | -29.4 |
| CC1=C(C(=O)Nc2ccc(Cl)cc2)C2(CCCCC2)C(C(N)=O)C(=S)N1 (centres unmarked) | -12.1 |
